Test results reported in the supplement of paper PMC3334620.
In all, about 33,000 sequences were measured (“E-score (-0.5 to 0.5)”: median about -0.016, highest 2% from about 0.32 on). This is one part of the list.

Molecular target: T1, Stp1 (UniProt B3LFK1)
T1 sequence: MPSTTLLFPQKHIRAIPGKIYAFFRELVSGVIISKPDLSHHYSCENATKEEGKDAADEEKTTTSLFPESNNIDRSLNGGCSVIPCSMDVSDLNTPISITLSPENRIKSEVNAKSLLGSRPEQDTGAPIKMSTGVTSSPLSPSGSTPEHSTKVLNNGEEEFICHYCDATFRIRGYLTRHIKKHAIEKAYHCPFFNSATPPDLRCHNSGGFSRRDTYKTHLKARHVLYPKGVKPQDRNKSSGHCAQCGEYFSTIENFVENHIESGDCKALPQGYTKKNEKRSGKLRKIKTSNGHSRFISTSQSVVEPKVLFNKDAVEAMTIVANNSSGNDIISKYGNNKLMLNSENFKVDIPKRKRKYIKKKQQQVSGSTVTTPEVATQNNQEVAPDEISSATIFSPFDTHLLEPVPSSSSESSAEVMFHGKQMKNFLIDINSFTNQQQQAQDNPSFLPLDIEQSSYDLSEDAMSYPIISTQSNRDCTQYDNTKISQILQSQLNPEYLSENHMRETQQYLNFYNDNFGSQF
Test: PBM E-score (8-mer binding enrichment) (E-score (-0.5 to 0.5)); higher = stronger / more preferred TF binding; most listed sequences are background and not binding sites
Conditions: protein concentration: 200 nM; construct: GST-full length
Summary of the method: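 Universal all-10-mer Agilent arrays, fresh or stripped once, were converted to double-stranded form by primer extension. GST-tagged yeast transcription factors from PURExpress in vitro transcription/translation, full-length or DNA-binding domain only, were applied at about 100-200 nM and detected with fluorescent anti-GST. After masliner normalisation, the Universal PBM Analysis Suite scored each ungapped eight-base word together with its reverse complement by E-score.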

Sequence | PBM E-score
AAATCCGC | 0.0925
CGGCACAA | 0.405
ACAATTCG | 0.159
AGATGTTC | -0.0605
GACCCACA | 0.0159
ATTCAGCG | -0.0619
AAGTCTTC | -0.0955
AAATACGC | 0.247
AGACCCTA | -0.211
CAAGCCAC | -0.206
CTGTTAAA | 0.0983
GCCGTAAC | 0.33
CGCTGCAC | 0.0717
CGGCCTTC | 0.322
CCATGTAC | -0.11
ACTAATAC | 0.128
GGTTTGTA | -0.177
ACCAGGGG | -0.142
AAATCGAG | 0.00156
CGGTACGC | 0.148
GGGCAGTA | -0.096
GGGTCACA | -0.191
CCTGTTCC | -0.121
ACGGGATG | -0.155
CGTCGCAC | 0.128

Sequence | PBM E-score
TATTAAGA | 0.0417
ATCTATTC | -0.00557
GTATTTGA | -0.0358
AGATTTCA | 0.0885
ATGGCATC | 0.186
GGAGCGAA | -0.0799
GACGTGAC | -0.126
CGGACGTC | -0.00174
ACCCAGAT | -0.268
ATAAGTCC | -0.141
TCGAAGCA | -0.0978
GAACCACA | 0.0537
CGCCATAA | 0.0594
GAGAACAC | -0.00017
GACAGTGA | -0.169
TACACGCA | -0.204
TAAGCCAA | -0.0218
ACACAATA | 0.0747
ATCTTGTA | -0.0656
AGAATGTC | 0.0594
TACGGACA | 0.114
CAGGTGTC | -0.163
CCCAAAGA | -0.0587
AGCCTCTG | -0.23
AACTAAGA | 0.0919

Sequence | PBM E-score
GATCTAGA | 0.0387
ACATCCAT | 0.0466
GAAAGCGA | 0.0409
AACTGCTA | -0.106
TAGTATGA | 0.107
CGAAAGAG | -0.0479
GCAAATGA | -0.116
AATTTGCT | 0.14
CAAATGCA | -0.06
AATTTAAT | 0.245
GCGAGAGC | 0.00497
ACCGCTAA | 0.0619
CATTATCA | 0.0245
AGACAATA | 0.28
AGCGAAAG | -0.138
ACCCGGGG | -0.224
TAGTGGGA | -0.21
GATTACGC | 0.159
TCAGGAAA | 0.032
ATATTGGA | -0.185
AAGTGATC | -0.0807
CTCGGTCA | -0.148
CCGAGCCA | -0.0385
ATCACGCC | 0.0859
ACACACCA | 0.0172

Sequence | PBM E-score
GTAGACGA | -0.0245
CCTACGCC | -0.0289
AGAGCGAG | -0.102
GAAAGTAC | 0.0754
ACACTTGA | -0.0766
CCACATAC | 0.094
AGAGCCCC | -0.12
GACGATAC | 0.116
TCATAGAA | 0.143
ATAGAAGA | -0.0683
GACCAACA | 0.172
GCATCATA | 0.157
ACATAGGT | 0.00268
ACGATCGA | 0.0709
AGTGCAGC | 0.0827
ATCACGGC | 0.351
CGCTTTTA | 0.0826
GTTCCTGA | -0.215
AGTGACGC | -0.093
AATATGAT | 0.171
GGACGGGA | -0.21
GAGTAAGA | 0.0899
GCTTAACC | -0.197
AACCACTA | -0.103
GTGCCGGA | 0.175

Sequence | PBM E-score
CCGTCTCG | 0.197
CTAGAGGC | -0.0523
TGCAGGCA | -0.105
TACAGTGA | -0.0112
AGCAAGGC | 0.29
CCAATCGC | 0.164
ACCCTTGG | -0.28
TCCAGCCA | -0.159
ACAAGTCA | -0.012
AAATGCAT | 0.0267
ATGACAGG | -0.132
AGATGCTA | -0.0596
ACACGTGG | 0.108
CTGTCGGA | -0.144
GGCATAAC | 0.134
AACATGGG | 0.042
CACGATTC | 0.101
AACAAGGC | 0.184
CGAAACAC | 0.0638
GACTTCCC | -0.338
CAGGCCTC | -0.356
GCTCGACA | -0.0566
ACCTGGAG | 0.132
TACTGCAA | -0.146
CGCATAAC | 0.00835

Sequence | PBM E-score
ATTACGTC | -0.0416
TATTCCGA | 0.052
AACTTGCT | -0.106
GGCGATCA | 0.145
CCTATACC | -0.275
AGATTGGA | -0.117
CAGACAGG | 0.149
GGAGGGAA | -0.282
GAACCTAA | -0.0159
CGCCAAAC | -0.0861
CCGATATC | -0.0369
AAGGGCTG | -0.246
ACGCGGTG | 0.0603
AATACAAA | 0.116
GAAGATGC | -0.168
CTCGATGA | -0.0419
GGTACAAA | 0.00814
TATCACCA | 0.0166
AGCCAGCT | -0.121
AACACCTC | -0.324
CGCATCGA | 0.0903
CCATAGCG | 0.0647
ATTGTCCG | 0.0154
AATTGCCA | -0.00723
AGCCTTCA | 0.108

Sequence | PBM E-score
CTAGTGAC | -0.104
TGCAGCCA | 0.0197
AATCACTA | 0.0134
ATTGGGGA | -0.193
CATGAGCC | 0.0875
CGCAGTAG | -0.127
AATGCCGT | 0.485
AGGACGAA | 0.123
CTCGCCCA | 0.00487
TAAAGCAA | 0.145
CATTGCAA | -0.00308
ACTTTTAC | 0.226
CAGCCTGA | -0.0377
CCCATAAA | 0.017
ATGCAAAC | -0.0781
ATTGACGA | 0.126
GTCAGAGA | -0.0963
TTATGGAA | 0.0641
TACGCTGA | 0.182
ATCCAATC | 0.045
GAGTCCCC | -0.385
ACTTAGAA | 0.0195
